Reference: patent EP0614464B1, “PEPTIDES AND ANTIBODIES FOR TREATMENT OF RHEUMATOID ARTHRITIS” (PEPTIDE THERAPEUTICS LIMITED, priority 1991, dated 1993)
Not every detail of the peptide structures is certain; ends, links or a residue may be inferred. Some entries repeat one wording, which the source may state once for all of them. Some results were stated once for a whole list of compounds, not compound by compound. Ends that are not written are not given here. Peptide text beside a SMILES is read from it.

How the values were obtained:
[1] = system: mouse macrophage cell line (PU 518); test: Macrophage inhibition assay: IgA-α1AT complex-stimulated release of lysosomal enzymes; assay type: cell-based; settings: Table 5; head prints no unit, b70 says all values of the results tables are in µMoles; concentration needed to prevent 50% release of β-glucoromidase
Description: A mouse macrophage cell line (PU 518) was stimulated to release lysosomal enzymes by the addition of purified human IgA-α1AT complex. The degree to which this release was then inhibited by the peptides or other drugs was investigated, with the degree of inhibition being indicative of activity; the concentration of peptide or other test drugs giving 50% inhibition being recorded. Briefly the method was as follows:
25µl of peptide or drug was double diluted in […] + 10% foetal calf serum (FCS) in a sterile tissue culture 96 well plate. 25µl of IgA-α1AT complex in RPMI 1640 +10% FCS at about 0.2mg/ml was then added to all wells. 50µl of cells at a concentration of 2 x 10^6 cells/ml in RPMI 1640 + 10% FCS was then added to each well.
Control wells of cells alone and cells + IgA-α1AT complex were also prepared. The plate was then gently mixed and incubated overnight (16hr) at 37°C in a 4% CO2 atmosphere. Plates were then centrifuged at 1200 rpm for 10 minutes in a bench top centrifuge. […]
Plates were then shaken for 3 minutes before the optical density at 570nm was read on a plate reader, and the amount of β-D-glucuronic acid released from the cells calculated. […]
The results for the macrophage inhibition assays are expressed as the concentration needed to prevent 50% release of β-glucoromidase.

IgA-α1AT complex [2] = test: HPLC analysis of in vitro dissociation of purified IgA-α1AT complex; assay type: biochemical, human; settings: for HPLC minimum: Table 5, minimum concentration giving complex : free IgA ratio at 20% (base-line 14%), 90 minutes at 37°C, >500µM = no complex dissociation at highest concentration tested; for activity: comment in words on Tables 3-5, assay not given, fits the HPLC values
Description: The ability of the peptides of the invention to dissociate purified IgA-α1AT complex in vitro was tested as described below. The anti-rheumatic drug D-penicillamine and other synthetic peptides were used as controls. […] The sample was monitored at wavelength 206nm at a flow rate of 1ml/minute with phosphate buffer (0.1M) pH 7.1. […] They represent the ability of the peptides to dissociate the IgA-α1AT complex in vitro. In these experiments, the base-lines level comprises a complex : free IgA ratio of 14% . The minimum concentration of peptide taken to produce a positive dissociation effect is that which results in a complex: free IgA ratio at 20%. In the results tables, all the peptide values are expressed in µMoles.

[3] = system: alternative complement (C3) pathway; test: Inhibition of C3-activation: preventing IgA-α1AT complex from activating the alternative complement pathway, rabbit erythrocyte haemolysis read-out; assay type: biochemical, human; settings: Table 5; minimum concentration needed to prevent C3 activation
Description: Various peptides were tested for their ability to prevent the IgA-α1AT complex from activating the alternative complement (C3) pathway.
The method of measuring the capacity to activate the alternative complement pathway by the non-immune IgA-α1AT complex and the subsequent inhibition of this activation by anti-rheumatic peptides is described below.
This method was based on the method described by Riches and Stanworth, Immunology Letters, 1980, 1, 363,366, with modification to miniaturise it thus allowing the assay to be carried out on microtitre plates.
The initial observation by Platts-Mills and Ishizaka (J Immunol. (1974) 113, 348,358) that low dilutions of fresh normal human serum, from which calcium had been removed by chelation with 10mM EGTA to block the classical complement pathway, caused greater than 90% haemolysis of unsensitised rabbit erythrocytes when incubated at 37°C was employed in this assay.
The non-immune complex IgA-α1AT had been shown in the past to be the only known soluble complex to activate the alternative pathway complement and […] of the rabbit erythrocytes. This inhibition required biologically active complex.
The buffers solutions required in this assay were (a) Total lysis buffer (1% Triton100 in ultra pure water), (b) Alternative pathway complement fixation diluent (APCFD) which was:- • 83 volumes CFD, DH 7.2 (1 oxoid tablet: 100ml UPW) • 10 volumes 0.1M EGTA pH 7.2 • 7 volumes MgCl2 pH 7.2
Blood was obtained by venipuncture from a healthy human individual. The blood was allowed to clot for 1 hour at room temperature and then stored overnight at 4°C. The serum was removed and stored at -70°C in lml aliquots. For use, the serum was defrosted and 100µl of 0.1m EGTA pH 7.2 and 70µl O.lm MgCl2 pH 7.2 was added.
Rabbit red blood cells (RBC) were obtained by venipuncture of a healthy rabbit and collected into 0.1M citrate buffer pH 6.2. The RBC were washed 3 times in citrate buffer and the cells were stored in this buffer which was changed every week. It was possible to store cells in this way for 3 weeks. Peptides
The peptides were synthesised as described in Example 1 and made up in UPW to lmM. They were kept frozen at -70°C prior to use.
This was prepared as previously described in Example 2. It was kept frozen in small aliquots prior to use.
Using a round bottomed welled flexible microtitre plate 100µl neat serum (with added EGTA and MgCl2) was added to the first wells in duplicate. This was double diluted out, with APCFD to give a volume of 50µl well. 8 test wells (+ duplicates) were sufficient. 8 wells were prepared as a positive control - (100µl 1% Triton/UPW). 8 wells were prepared as a negative control - (100µl APCFD (Blank)).
50µl of APCFD was added to the test wells and 50µl of 1% rabbit RBC was added to all wells. The plate was then incubated at 37°C for 30 minutes and then centrifuged for 10 minutes at 2000 rpm.
75µl of the supernatant was carefully removed and plated onto a flat bottom welled microtitre plate. The plates were then read at 410nm interference, 690nm reference. The zero or blank value was calculated as the mean value of negative control wells and using the mean of the positive control wells, the percentage lysis for serum dilutions was calculated. In future assays the serum dilution in which lysis was approx. 80% of Rb RBC was used. This was usually in the range 1:4 - 1:6 dilution (ie. lml serum : 4ml APCFD - 6ml APCFD).
A 1:1 dilution of IgA-α1AT complex was made with twice concentrated APCFD. […]

IgA-α1AT complex [4] = test: Anti-rheumatic potential of the peptide in the passive model of RA (arthritis induced by intra-articular IgA-α1AT complex); assay type: in vivo, rabbits; settings: 0.1ml of a 10mg/ml solution ia from 48 hours after induction, repeated at 2-3 day intervals; t-test vs placebo group; days 1 and 11 after start of treatment

Row | Compound | HPLC minimum (IgA-α1AT complex [2]) | activity (IgA-α1AT complex [2]) | other results
1 | KTKGSGFFVF [Peptide 30, KTKGSGFFVF, reference compound] | >500 µM | – | IC50 [1]: 250 µM; C' minimum [3]: 31 µM
2 | NCCCC[C@H](NC(=O)[C@H](CCCCN)NC(=O)[C@H](CS)NC(=O)[C@@H](N)Cc1c[nH]cn1)C(=O)O [Peptide 107, HCKK] (H-HCKK-OH) | 250 µM | substantially less active | –
3 | N[C@@H](Cc1c[nH]cn1)C(=O)N[C@@H](CS)C(=O)O [Peptide 112, HC, reference compound] (H-His-Cys-OH) | 250 µM | substantially less active | –
4 | NCCCC[C@H](NC(=O)[C@@H](N)CS)C(=O)O [Peptide 109, CK, reference compound] (H-Cys-Lys-OH) | 500 µM | substantially less active | –
5 | NCCCC[C@H](NC(=O)[C@H](CCCCN)NC(=O)[C@H](CS)NC(=O)[C@@H](N)Cc1c[nH]cn1)C(=O)O [His-Cys-Lys-Lys] (H-HCKK-OH) | – | – | swelling of the joints (joint width) (IgA-α1AT complex [4]): significant decrease of swelling of the joints
6 | C[C@@H](O)[C@H](N)C(=O)N[C@@H](CS)C(=O)N[C@@H](Cc1ccc(O)cc1)C(=O)O [Peptide 128, TCY, reference compound] (H-Thr-Cys-Tyr-OH) | 125 µM | – | –
7 | EVDGTCY [Peptide 124, EVDGTCY, reference compound] | 250 µM | – | C' minimum [3]: 16 µM
8 | IQHCKK-NH2 [Peptide 134, IQHCKKnh2] | – | no effect on activity | –
9 | VSVVMAEVDGTCY [Peptide 80, VSVVMAEVDGTCY, reference compound] | 10 µM | – | C' minimum [3]: 16 µM
10 | QHCKK-NH2 [Peptide 133, QHCKKnh2] | – | no effect on activity | –
11 | NCCCC[C@H](NC(=O)[C@H](CS)NC(=O)[C@@H](N)Cc1c[nH]cn1)C(=O)O [Peptide 110, HCK, reference compound] (H-His-Cys-Lys-OH) | 500 µM | substantially less active | –
12 | VDGTCY [Peptide 125, VDGTCY, reference compound] | 250 µM | – | C' minimum [3]: 31 µM
13 | NIQHCKK-NH2 [Peptide 135, NIQHCKKnh2] | – | no effect on activity | –
14 | GMFNIQHCKKLSS [Peptide 90, GMFNIQHCKKLSS, reference compound] | 50 µM | – | C' minimum [3]: 31 µM
15 | DHCKK [Peptide 108, DHCKK] | 10 µM | – | –
16 | NCCCC[C@H](NC(=O)[C@H](CCCCN)NC(=O)[C@@H](N)CS)C(=O)O [Peptide 106, CKK] (H-Cys-Lys-Lys-OH) | 500 µM | substantially less active | –
17 | DGTCY [Peptide 126, DGTCY, reference compound] | >500 µM | – | –
18 | KAAGS [Peptide 96, KAAGS, reference compound] | >500 µM | – | –
19 | C[C@@H](O)[C@H](NC(=O)CN)C(=O)N[C@@H](CS)C(=O)N[C@@H](Cc1ccc(O)cc1)C(=O)O [Peptide 127, GTCY, reference compound] (H-GTCY-OH) | 50 µM | – | –
